Experimental data: PubChem BioAssay (Tox21)
Where “and” joins values, the source holds several entries; their conditions need not be identical. Equal values may be shown once. The inconclusive results got no clear call from the source; some entries with a clear call stand among them for comparison. A potency beside an inconclusive call is a rough fit, not a confirmed value. Where a structure was tested more than once in an assay, its records may differ in their call. Calls of active or inactive are those of the source. Unless noted, calls come from the whole dose curve; as a rule, active = well fitted cell-killing curve with a large enough effect in the repeat runs; inconclusive = weak or mixed curves, or effect the other way; inactive = flat fitted curve, though single readings scatter.

Target: Thyrotropin-releasing hormone receptor (Homo sapiens) (UniProt P34981)
Assay: qHTS assay to identify small molecule agonists of the thyrotropin-releasing hormone receptor (TRHR) signaling pathway (AID 1346891; calls by dose curve;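 for activation: HEK293 cells expressing TRHR with calcium dye readout; % is set by controls: 0 for no effect and ±100 for the full control effect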)
Details: TRHR-HEK293 calcium fluorescence, agonist mode; series mostly up to 57.6 µM; activation: at the top concentration
How it was run: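 Kinetic fluorescence (3 min, 1 s intervals) reported intracellular calcium after compound transfer onto TRHR-Hek293 cells pre-loaded with dye for 2 h at 37 °C.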
Potency is the fitted concentration of half-maximal effect; tags give direction and shape of the fitted curve or compound fluorescence and quenching.

UniProt P34981, sequence (P34981 whole entry, looked up): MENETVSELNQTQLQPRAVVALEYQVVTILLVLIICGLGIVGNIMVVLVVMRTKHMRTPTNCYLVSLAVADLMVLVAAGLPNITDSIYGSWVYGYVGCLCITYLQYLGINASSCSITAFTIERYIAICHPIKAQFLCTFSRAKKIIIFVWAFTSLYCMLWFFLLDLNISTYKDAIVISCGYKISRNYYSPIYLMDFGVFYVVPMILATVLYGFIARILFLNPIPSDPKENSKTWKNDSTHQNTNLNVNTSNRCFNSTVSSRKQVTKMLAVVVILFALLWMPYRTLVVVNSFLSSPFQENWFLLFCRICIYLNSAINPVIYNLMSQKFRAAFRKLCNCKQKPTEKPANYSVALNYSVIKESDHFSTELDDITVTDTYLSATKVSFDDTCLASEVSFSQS

SMILES	activation	Potency
CCCCOC(=O)CCC(=O)OCCCC	inactive: -0.227%	–
CC(C)(C)c1cc([N+](=O)[O-])cc([N+](=O)[O-])c1O	–	inconclusive: 15.5 µM [activator, partial curve]
CCOC(=O)C(Cl)C(C)=O (centres undefined)	–	inconclusive: 39.4 µM [activator, single point]
CCC(C(N)=O)N1CCCC1=O (centres undefined)	inactive: -0.358% [at 26.5 µM]	–
COP(=O)(OC)OC	–	inconclusive: 31.2 µM [activator, partial curve]
C=CCOC(Cn1ccnc1)c1ccc(Cl)cc1Cl (centres undefined)	–	inactive
Cc1ccc(N)cc1Cl	–	inactive

Tested on: not listed separately
Assay: qHTS assay to identify small molecule antagonists of the TGF-beta/Smad signaling pathway (AID 1346924; active = well fitted inhibition curve with a large enough effect in the signal ratio in the repeat runs, not every such curve was filed as active; inconclusive = weak or mixed curves; the % refers to the signal ratio)
Details: SBE-bla HEK293T, TGF-beta/Smad reporter, beta-lactamase ratio; activity, negative = inhibition: at 76.8 µM (top of the series) unless noted
How it was run: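 Read-out was FRET-substrate fluorescence (405 nm excitation; 460 and 530 nm emission) after 2 h at room temperature. Before that, cells carrying a Smad-binding-element beta-lactamase reporter in HEK 293T had been stimulated 5 h at 37 C with TGF-beta1 (0.25 ng/mL addition solution) in the presence of test compound.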

SMILES	activity, negative = inhibition	Potency
CCCCN(N=O)C(=N)N[N+](=O)[O-]	inconclusive: -21.9%	–
O=C(CBr)c1ccccc1	inconclusive: -6.56%	–
C/C(=C\c1ccccc1)[N+](=O)[O-]	inconclusive: -13.1%	–
CCOP(=S)(OCC)Oc1cc(Cl)c(Br)cc1Cl	inconclusive: -40.5%	–
ClC(Cl)Br	inconclusive: 3.05%	–
CCCC[N+]1(C)[C@@H]2CC(OC(=O)[C@H](CO)c3ccccc3)C[C@H]1[C@@H]1O[C@@H]12 (some centres undefined)	inconclusive: -18.9% [at 35.3 µM]	–
c1ccc(N=NNc2ccccc2)cc1	–	inconclusive: 63.8 µM [rising, single point] and inconclusive: 54.9 µM [rising, single point]
O=C(CCl)Nc1ccccc1	inconclusive: -1.68%	–
Cn1cc(-c2ccccc2)c(=O)c(-c2cccc(C(F)(F)F)c2)c1	inconclusive: 0.962%	–
Cl/C=C/Cl	inconclusive: 1.65%	–
CC(C)N(C(=O)CCl)c1ccccc1	inconclusive: -13.4%	inconclusive: 21.9 µM
CCOP(=S)(OCC)Oc1ccc2c(C)c(Cl)c(=O)oc2c1	inconclusive: -6.29%	inconclusive: 30.1 µM [rising, single point]
CCOCN(C(=O)CCl)c1c(C)cccc1CC	–	inconclusive: 38.9 µM [rising, partial curve]
O=S(=O)(O)OOS(=O)(=O)O	inconclusive: 0.242% and inconclusive: 0.425%	–
CCCC[n+]1ccccc1	inconclusive: 37.6%	–
CC(c1ccccc1)(c1ccc(O)cc1)c1ccc(O)cc1	inconclusive: -14.1%	–
CCCC(Cn1cncn1)c1ccc(Cl)cc1Cl (centres undefined)	inconclusive: -11.4%	–

SMILES	activity, negative = inhibition	Potency
CC(C)(C)c1cc([N+](=O)[O-])cc([N+](=O)[O-])c1O	–	inconclusive: 38.8 µM [rising, partial curve]
CN(C)[C@@H]1C(=O)C(C(N)=O)=C(O)[C@@]2(O)C(=O)C3=C(O)c4c(O)cccc4[C@@](C)(O)[C@H]3[C@H](O)[C@@H]12	–	inconclusive: 21.8 µM [rising, partial curve, poor fit]
COP(=O)(OC)OC	inconclusive: -10.1%	–
COc1cccc2c1C(=O)c1c(O)c3c(c(O)c1C2=O)C[C@@](O)(C(=O)CO)CC3OC1CC(N2CCOC(OC)C2)C(O)C(C)O1 (some centres undefined)	inconclusive: 1.39% [at 35.3 µM]	–
CC(=O)/C=C/c1ccc2c(c1)OCO2	inconclusive: 3.4%	–
COC(=O)N(OC)c1ccccc1COc1ccn(-c2ccc(Cl)cc2)n1	inconclusive: -24.1%	–
CCC(C)(NC(=O)c1cc(Cl)c(C)c(Cl)c1)C(=O)CCl (centres undefined)	inconclusive: -26.9%	–
CCCCC(O)(Cn1cncn1)c1ccc(Cl)cc1Cl (centres undefined)	inconclusive: -23.1%	–
Oc1ccc(Cl)c(Cl)c1Cl	inconclusive: -2.45%	–
Clc1ccc(CO/N=C(\Cn2ccnc2)c2ccc(Cl)cc2Cl)c(Cl)c1	inconclusive: -12.6% [at 35.3 µM]	–
Clc1ccc(Cl)cc1	inconclusive: 12.4%	–
N#Cc1nn(-c2c(Cl)cc(C(F)(F)F)cc2Cl)c(N)c1S(=O)C(F)(F)F (centres undefined)	inconclusive: -8% [at 35.3 µM]	inconclusive: 27.7 µM [rising, partial curve]
CCCCCCCCCCOC(=O)c1ccccc1C(=O)OCCCCCCCCCC	inconclusive: -17.5%	–
CCCCCc1cc(O)cc(O)c1	inconclusive: -28.6%	–
c1ccc(CN2CCNCC2)cc1	inconclusive: -4.75% [at 200 µM]	–
CCCCCCCCn1cc[n+](C)c1	inconclusive: -25.8% and inconclusive: -6.08%	–
O=C(O)COc1ccc(Cl)cc1Cl	inconclusive: -0.848% and inconclusive: -0.0856%	inconclusive: 30.9 µM [fluorescent, partial curve, poor fit]

Tested on: not listed separately
Assay: Human pregnane X receptor (PXR) small molecule agonists, qHTS cell viability counter screen (AID 1346977); note: nearly all actives have a fitted effect of over 50% in size; for activity change, negative = cytotoxicity: % is set by controls: 0 for no effect and ±100 for the full control effect
Details: PXR-Luc HepG2 viability, CellTiter-Fluor, 24 h; series mostly up to 92.4 µM; activity change, negative = cytotoxicity: at the top concentration
How it was run: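 HepG2 cells stably carrying the PXR-Luc reporter are cultured with 5% charcoal-stripped FBS and treated with compounds for 24hr. CellTiter-Fluor is added at 23hr and fluorescence is read after 1hr.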

SMILES	Potency	activity change, negative = cytotoxicity
CCCCN(N=O)C(=N)N[N+](=O)[O-]	inconclusive: 70.1 µM [cytotoxic, partial curve, poor fit]	–
O=C(CBr)c1ccccc1	–	inactive: 0.115%
C/C(=C\c1ccccc1)[N+](=O)[O-]	active: 43.3 µM	–
CCOP(=S)(OCC)Oc1cc(Cl)c(Br)cc1Cl	–	inactive: 23.1%
c1ccc(N=NNc2ccccc2)cc1	inconclusive: 6.32 µM [cytotoxic, full curve] and inconclusive: 54.5 µM [cytotoxic, partial curve]	–
O=C(CCl)Nc1ccccc1	active: 61.1 µM	–
Cn1cc(-c2ccccc2)c(=O)c(-c2cccc(C(F)(F)F)c2)c1	inconclusive: 44.7 µM [cytotoxic, partial curve, poor fit]	–
CC(C)N(C(=O)CCl)c1ccccc1	inconclusive: 56.2 µM [cytotoxic, partial curve]	–
CCOCN(C(=O)CCl)c1c(C)cccc1CC	inconclusive: 57.7 µM [cytotoxic, partial curve, poor fit] and inconclusive: 61.1 µM [cytotoxic, partial curve]	–
O=S(=O)(O)OOS(=O)(=O)O	inactive	–
CC(c1ccccc1)(c1ccc(O)cc1)c1ccc(O)cc1	inconclusive: 68.6 µM [cytotoxic, single point]	–
CCCC(Cn1cncn1)c1ccc(Cl)cc1Cl (centres undefined)	inconclusive: 68.6 µM [cytotoxic, single point]	–
CN(C)[C@@H]1C(=O)C(C(N)=O)=C(O)[C@@]2(O)C(=O)C3=C(O)c4c(O)cccc4[C@@](C)(O)[C@H]3[C@H](O)[C@@H]12	inconclusive: 42.9 µM [cytotoxic, partial curve, poor fit]	–
COc1cccc2c1C(=O)c1c(O)c3c(c(O)c1C2=O)C[C@@](O)(C(=O)CO)CC3OC1CC(N2CCOC(OC)C2)C(O)C(C)O1 (some centres undefined)	active: 0.168 µM	–
CC(=O)/C=C/c1ccc2c(c1)OCO2	inconclusive: 79.4 µM [cytotoxic, single point]	–
COC(=O)N(OC)c1ccccc1COc1ccn(-c2ccc(Cl)cc2)n1	active: 5.45 µM	–
CCC(C)(NC(=O)c1cc(Cl)c(C)c(Cl)c1)C(=O)CCl (centres undefined)	inconclusive: 69 µM [cytotoxic, single point]	–
CCCCC(O)(Cn1cncn1)c1ccc(Cl)cc1Cl (centres undefined)	inconclusive: 68.5 µM [cytotoxic, single point]	–
Oc1ccc(Cl)c(Cl)c1Cl	inconclusive: 71.1 µM [cytotoxic, single point]	–
Clc1ccc(CO/N=C(\Cn2ccnc2)c2ccc(Cl)cc2Cl)c(Cl)c1	inconclusive: 33.5 µM [cytotoxic, single point]	–
Clc1ccc(Cl)cc1	active: 2.17 µM and inactive	–
C=CCOC(Cn1ccnc1)c1ccc(Cl)cc1Cl (centres undefined)	inconclusive: 70.8 µM [cytotoxic, single point] and inconclusive: 26.6 µM [cytotoxic, partial curve]	–
CCCCCc1cc(O)cc(O)c1	inconclusive: 68.6 µM [cytotoxic, single point]	–
CCCCCCCCn1cc[n+](C)c1	inconclusive: 9.62 µM [cytotoxic, full curve]	–
